This note sets out measurements from publication PMC10726135.

Some of the results follow. At the low end of the ranking the order means little. The protein was read in a cell extract, so binding may be indirect.

This experiment has as its target T1, HNF4alpha8 (COS-7 nuclear extract) (UniProt P41235-5).
T1 sequence: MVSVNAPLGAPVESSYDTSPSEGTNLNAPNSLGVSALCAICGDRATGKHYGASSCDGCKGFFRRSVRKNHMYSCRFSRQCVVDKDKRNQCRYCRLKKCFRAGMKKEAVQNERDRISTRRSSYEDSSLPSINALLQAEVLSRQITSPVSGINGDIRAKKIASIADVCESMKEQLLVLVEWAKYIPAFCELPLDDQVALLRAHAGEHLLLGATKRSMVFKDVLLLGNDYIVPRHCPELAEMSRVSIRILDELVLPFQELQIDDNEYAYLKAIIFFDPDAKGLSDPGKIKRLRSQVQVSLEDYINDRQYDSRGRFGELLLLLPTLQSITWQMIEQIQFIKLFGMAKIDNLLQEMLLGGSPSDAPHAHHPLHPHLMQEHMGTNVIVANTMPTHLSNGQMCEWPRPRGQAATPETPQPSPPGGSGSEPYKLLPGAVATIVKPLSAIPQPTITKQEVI
Description: protein-binding microarray. As to conditions: COS-7 nuclear extract on double-stranded Agilent 4x180k PBM; binding buffer, salt, pH and temperature not given; high values mean tight binding; double strand, one strand shown; sequences stand for … in …GCCTAGGGAGATTAGAGTATCGGTCGA
Take AACCTGACTGCGCTCCCAGAAGCCTCCGGT: the binding signal (log2 normalized intensity) was -1.3. Consider GTCACCATAAAACATTCTATTCTATCTGTA, for which the binding signal (log2 normalized intensity) turned out to be 0.384. With TGAGATAAAAAGAAGCTTGGTATGTCTGAT, the binding signal (log2 normalized intensity) worked out at 0.371.

Take TAATTAACTTGTGTTCAGAGCTTGCTGCAT: the binding signal (log2 normalized intensity) is -0.87.

Take CTTATCTCAAGAATTGTCTAACCGCAGCAA: the binding signal (log2 normalized intensity) was -1.34. Then GTCAAACTTTGGACCCACTGCAGGATTGGA, with 4.17. Then CTATTCTCTAAACTCTGGGCTCTATTTGGA, with 0.51. The figure for CTTCACTTGTAGGAGACCTTGAGGATAAGT is 0.986. For the sequence GTACTCCTCACTGTTGTGACATACTGCCTT, the binding signal (log2 normalized intensity) was 0.84.

On to CTCTGCCTGCGTCTTATATAAGCTATTACT, for which the binding signal (log2 normalized intensity) was -1.19. The figure for CTCCGCCCCATTGTCTTAGGCCTCGGGAGT is 1.3; for GTTATCCTTGTTCTATGTTCACATCTCCTC it is 1.3. Then ATGATAACCCAGTGCAATGCCTAAACCAGG, with -1.34. Take TATCAGCCTGTGACAAAGTCCATCTGGGCA: the binding signal (log2 normalized intensity) was 4.03. Take TGATAGCCTTTTACCTTGGCAGCCACTGAG: the binding signal (log2 normalized intensity) is -1.14.

Regarding GCCGCCGCCGTGGGAGAGGCCGCCCCCTGC, the binding signal (log2 normalized intensity) turned out to be 4.39. The figure for CCCAGAAACACTGAACCTTGTCCCACTCTT is 2.32. With GTCCAGGAGTGCAAAGCTGCTATGAGCTAT, the binding signal (log2 normalized intensity) was -1.26. Consider CTTCCAGCCATTTTGTGAGCTCTGATGGCG, for which the binding signal (log2 normalized intensity) is -1.2.

Regarding AAAACAGGTAGAGAGCTGTCTGCTGAGGAT, the binding signal (log2 normalized intensity) is -1.3.

Turning to GCCAGAGTTCCTGTGCAAGCCCCTGACCAA, the binding signal (log2 normalized intensity) came to 1.67. Regarding TTCAGAAGGTAGGTAAGGGGGAATGCCAAC, the binding signal (log2 normalized intensity) is -1.31. As for GCATAGATGTTTAGCTATCAGTGTTGACCT, the binding signal (log2 normalized intensity) worked out at 4.65. The figure for ACATTCCTAAAAGCTTTCTTGGGCAAGAAA is -1.36; for CGCCCCGCCTTCGCGCCCGTTTTCGTTTGC it is 1.97. The figure for GCCATACGTCTAGAGCTGTCCAGCAGACAA is -1.33; for GTGACCTTGAGCACTAAAGAGGCTACCAGA it is -1.22; for AGACTGGTTTGCACAGGTTACACAGTATGT it is -0.754.

As to AGGCCAGCTGTCTGGTTTGACCTTAAGTCA, the binding signal (log2 normalized intensity) stood at 5.5. In the case of TATGTGGTGGAATGGAAAGAATATGAACTT, the binding signal (log2 normalized intensity) was determined as 1.88.

AAGTAACAAGAGGCAAAGGCCACAGCTCAG: the binding signal (log2 normalized intensity) was -1.32.

As to GAAAGGAAATCATTCCAGAAAGACAGCTGC, the binding signal (log2 normalized intensity) was -1.32. TTTACAGCACTTCATCCTTATGTAACTGTA: the binding signal (log2 normalized intensity) is 0.579. Take CCCCTGGGCTCAAGCGATCCTCCCACTTCA: the binding signal (log2 normalized intensity) was -1.32. The figure for GAGAAAGCAGTGACCATCCCAAAGCTTTTT is -1.37; for AAATGCTGATAATGATATGGACAATGAAAT it is 0.122; for CCCCCACACAGACAAAGACAGAGAGGCTTC it is 2.13. The figure for GGGCAGCACAGCCTCCCTGTGGGGGAGGTG is -1.22; for CTGCCCTTCCCTCCACTATTGTCCTATGAC it is 2.45. The figure for ACATTTTTATCCTTTTTTGAAGGTTAAAGT is 3; for TCAACTAAGTGTTATCTAAATTAGATATGG it is 0.865; for CGCCCAGCCAGAAAAACAGCATTTTTATCA it is -1.2. In the case of GGAATTTGCCCTGTGGTCTAGCTTGTTCTC, the binding signal (log2 normalized intensity) was determined as 2.97.

On to TGTGTAGGAGTACACTCAGCACACCCCACG, for which the binding signal (log2 normalized intensity) came to 2.21. The figure for TCCAGGAATGTGCTAAAAAACAAACAAAAA is -1.33. Consider AATGAACACCTGTTCTAATCAGTAGCTCAC, for which the binding signal (log2 normalized intensity) was -1.3. Then CTCTGCACAGCACAAGATAAGATAGGAATT, with -0.983; and CTTGAGTAGCTGGGACTACAGGCAGGCACC, with -1.51. On to CCAGGGAAGCTGGTAGCATGGCTCAGTCCA, for which the binding signal (log2 normalized intensity) is -1.28. Then TATTTCCACTGAGGTCAAGATAAGATACGA, with 1.14; and GCTGTTTTTCCAGTTTTTGTTTGCACCTCA, with 1.7; and GGGCAATTGGTTTCCGCTAAGTCCAAAGGT, with 4.14.

For TGACCTGTGATAAGAAATGAATGTCACTTT, the binding signal (log2 normalized intensity) worked out at 1.48. Turning to TGGTGTGTGTGTGTGTGTTTTGTGCCTGTT, the binding signal (log2 normalized intensity) stood at 2.71. Then GGAGAAGTTTTATGGCAGGGTCGGAATGTC, with 2; and ACTTTGAACCAAGATATGCTAACATCCCTT, with -1.33. For CCTTATTCTTAACAAGCTGAGCACCAGAAA, the binding signal (log2 normalized intensity) is -1.36.

Consider CCTGCTGAGCCCAATCTAGCAAAAATCCTG, for which the binding signal (log2 normalized intensity) was -1.3. For CCACTAGAGAGACCGTCCCTGGGTACAACT, the binding signal (log2 normalized intensity) is 1.33.

Consider AGGGGGGAGAAATTAAAGCACATACTTCTT, for which the binding signal (log2 normalized intensity) was -1.33. The figure for TGCTGAGGAGGGCCTGGGGGACAGCAGGGG is -1.31; for TTTTGCCCCTGCAGAGTTTTTTACTGCTCC it is 1.2; for GGAGCTCATACCTCTTACCAGATAGATGCT it is -1.23. As for GCCTGGGGTTTGGCTCCAAGGCTGAAGGTC, the binding signal (log2 normalized intensity) came out at 3.73. Then CAAAGGTGAATGACCCCTCCCCTCCCCCTT, with 6.02. Then ATAATCTTTGAAATCTGCAAATAGACATGA, with 0.693. In the case of AGCTGCAAGTGCCAACAAACTCAATCCTGG, the binding signal (log2 normalized intensity) was -1.32. Then GCGCCCTTTGTTCTCCGGGTTCTGCGCAGG, with 0.568; and CAAAGGTGCAAAGGTTAAAATGCCCTCACA, with 5.59; and TGTACAAAGCCATCAGCACTGGTTCAAAGT, with 2.4. Then TGAGATAATGCTGGTAAAGCACTTTGCCCC, with 5.35; and ATTTCTGTTGTTGATTTAACATTTGTGATC, with 2.22.

As to CTAGGTAAGCACAGGTTTCTGTCCTGGTCA, the binding signal (log2 normalized intensity) worked out at 1.94.
